Experimental data: PubChem BioAssay AID488969 (Vanderbilt High Throughput Screening Facility, 2010)
Over roughly 110,000 compounds, “z-score” has its median near -0.1; the highest 2% begin near 2. This is one part of the list. Calls of active or inactive are those of the source.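 How the source made its calls: active means z-score in the third read window above 3 or below -3; inactive means the rest.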

These molecules were tested against Metabotropic glutamate receptor 8 (Rattus norvegicus) (UniProt P70579) (assay: mGluR8 Gi/Go-coupled signaling modulation – cell-based, rat, thallium flux, HTS, primary screen (AID 488969)). Settings: HEK293 rat mGluR8, GIRK (G protein-gated inwardly rectifying potassium channel) thallium flux, FluoZin2; at 10 µM; stronger effect = higher value; submaximal glutamate (EC20) added with thallium.
UniProt P70579, sequence (P70579 whole entry, looked up): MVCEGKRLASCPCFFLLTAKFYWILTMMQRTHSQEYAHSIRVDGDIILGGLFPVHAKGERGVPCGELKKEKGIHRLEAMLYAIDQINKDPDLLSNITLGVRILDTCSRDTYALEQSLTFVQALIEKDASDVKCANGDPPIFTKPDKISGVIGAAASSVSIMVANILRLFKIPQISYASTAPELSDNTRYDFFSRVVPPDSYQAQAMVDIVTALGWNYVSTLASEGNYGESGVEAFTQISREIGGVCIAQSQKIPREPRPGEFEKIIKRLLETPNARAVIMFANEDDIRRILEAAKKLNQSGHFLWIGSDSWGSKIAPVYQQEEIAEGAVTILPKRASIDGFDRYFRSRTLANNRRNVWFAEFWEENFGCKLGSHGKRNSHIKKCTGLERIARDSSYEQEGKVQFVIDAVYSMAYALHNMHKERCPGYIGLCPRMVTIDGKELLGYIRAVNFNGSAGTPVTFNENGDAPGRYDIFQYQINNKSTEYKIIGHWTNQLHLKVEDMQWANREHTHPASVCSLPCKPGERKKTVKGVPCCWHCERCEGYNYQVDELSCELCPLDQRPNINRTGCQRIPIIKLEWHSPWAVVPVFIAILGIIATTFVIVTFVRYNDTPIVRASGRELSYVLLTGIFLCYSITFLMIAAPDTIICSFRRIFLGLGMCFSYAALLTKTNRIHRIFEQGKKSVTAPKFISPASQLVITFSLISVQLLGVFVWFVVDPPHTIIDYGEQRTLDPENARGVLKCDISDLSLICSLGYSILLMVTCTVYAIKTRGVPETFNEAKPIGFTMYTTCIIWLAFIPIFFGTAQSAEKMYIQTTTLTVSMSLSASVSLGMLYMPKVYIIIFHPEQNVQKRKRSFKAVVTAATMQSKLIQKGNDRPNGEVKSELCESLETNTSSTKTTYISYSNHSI

| SMILES | z-score |
| --- | --- |
| Cc1cccc2cc(CN(Cc3ccc(F)cc3)C(=O)N3CCOCC3)c3nnnn3c12 | -0.294 |
| O=C(NCc1cccs1)c1nn2cccnc2c1Cl | 0.0467 |
| O=C(c1ccc(Cl)cc1)N1CCN=C1c1ccccc1 | -0.183 |
| COc1ccc(CCNCc2ccc(OCc3ccc(Cl)nc3)c(OC)c2)cc1OC | 0.013 |
| Cc1ccc(C(C#N)c2ccc3c(C(F)(F)F)cc(C(F)(F)F)nc3n2)cc1 (centres undefined) | 1.26 |
| CCOC(=O)C1CCN(C(=O)c2ccc(Cl)c(Cl)c2)CC1 | 0.0007 |
| COCCn1c(=O)c2cc3c(=O)n(CCOC)c(=O)c3cc2c1=O | 0.119 |
| Cc1ccc(-n2c(SCC(=O)Nc3ccc4c5c(cccc35)CC4)nc(O)cc2=O)cc1 | -0.675 |
| COC(=O)c1ccc(Cn2c(C)cc(C)[n+]2C)o1 | -0.26 |
| CC(=O)NC(CCS(C)(=O)=O)C(=O)Nc1nccs1 (centres undefined) | 0.088 |
| CCOC(=O)C1=NN(C(=O)Nc2cccc(C(F)(F)F)c2)C2C(=O)N(c3cccc(C(F)(F)F)c3)C(=O)C12 (centres undefined) | -0.168 |
| Cc1ccc2nc(NC(=O)C(NS(=O)(=O)c3cccc4nsnc34)C(C)C)sc2c1 (centres undefined) | -0.223 |
| CCCN(CCC(=O)Nc1ccccc1F)CC1CC1 | -0.182 |
| Cc1oc(C(=O)O)cc1COc1ccc2c3c(c(=O)oc2c1C)CCC3 | -0.462 |
| COc1ccc(CNC(=O)c2ccccc2SC)cc1 | -0.0757 |
| O=C(CCCSc1nc2sc3c(c2c(=O)[nH]1)CCC3)NCCCO | -2.63 |
| COc1ccccc1NC(=O)Cc1nc(CCl)cs1 | -0.0598 |
| COc1ccccc1-c1c(C)oc2c(CN3CCN(CCO)CC3)c(O)ccc2c1=O | -0.126 |
| Cc1cc(C(=O)OCC(=O)Nc2ccc(F)c(F)c2)c(C)o1 | 0.0113 |
| CC1CN(C(=S)NC(=O)c2ccc([N+](=O)[O-])cc2)CC(C)O1 (centres undefined) | 0.605 |
| O=C(CSc1nc2ccccc2n1CC(=O)N1CCCC1)N1CCN(C(=O)c2ccco2)CC1 | -0.613 |
| O=C(Cn1cc(-c2nnnn2-c2ccc(Cl)cc2)c(=O)c2ccccc21)c1ccccc1 | 0.138 |
| C/C(=N\NC(=O)c1ccccc1F)c1ccc2c(c1)Nc1ccccc1S2 | -0.108 |
| CCNC(=S)N1CCN(C(c2ccccc2)c2ccccc2)CC1 | -0.321 |
| CCOc1ccccc1NC(=O)c1cnc2n(c1=O)CCS2 | 0.405 |
| O=S(=O)(NC1CC1)c1cccc(S(=O)(=O)N2CCCC2)c1 | -0.508 |
| COc1ccc(OCc2nc(N)nc(Nc3cccc(C)c3C)n2)cc1 | -0.0211 |

| SMILES | z-score |
| --- | --- |
| CCCC(=O)OC(C(=O)Nc1cc(C(F)(F)F)ccc1Cl)c1ccccc1 (centres undefined) | -0.094 |
| Nc1nc2ccccc2n1C(=O)CCc1ccccc1 | 0.801 |
| COc1cc(/C=C(\C#N)C(=O)NCC2CCCO2)c([N+](=O)[O-])cc1OC (centres undefined) | -0.142 |
| O=C1CN(c2nc3ccccc3n3cnnc23)CC(=O)N1CCc1ccccc1 | 0.0771 |
| Cc1cc2oc3c(c(=O)c2cc1C)C(c1cccc(Br)c1)N(Cc1ccco1)C3=O (centres undefined) | -1.41 |
| Cc1ccc(P(=O)(OCCN2CCOCC2)C(C)(C)C)o1 (centres undefined) | 0.733 |
| C=CCc1ccc(OCCCCN2CC(C)OC(C)C2)c(OC)c1 (centres undefined) | 0.314 |
| O=C(CSc1ccc(Cl)cc1)Nc1ccc(N2CCN(c3ccccc3)CC2)c(F)c1 | -0.0573 |
| O=C(Cc1ccccc1)NC1c2ccccc2-c2ccccc21 | -0.242 |
| COCCOc1cc(NC(=O)c2sccc2Oc2ccc([N+](=O)[O-])cc2F)c(Cl)cc1Cl | -0.513 |
| CCOC(=O)c1sc(=S)n(C)c1NC(=O)c1ccccc1 | -0.0971 |
| O=C(/C=C/c1cccc([N+](=O)[O-])c1)NCCSc1ccccc1 | -0.3 |
| CCN1C(=O)/C(=C2/C=Cc3ccccc3N2C)OC1=S | 1.63 |
| COc1c(OC(C)=O)ccc(/C=C/c2ccc3cccc(OCc4ccccc4)c3n2)c1[N+](=O)[O-] | -0.408 |
| O=C(CSc1nnnn1-c1ccc(O)cc1)Nc1ccc(N2CCOCC2)c(Cl)c1 | -0.381 |
| COc1nc(-c2ccccc2Cl)ccc1C#N | -0.243 |
| CCOC(=O)c1c(C)c(C#N)c2c3ccccc3ccn12 | -0.298 |
| COc1ccccc1-n1c(CNc2ccc(F)cc2)nnc1SCC(=O)Nc1cc(C)on1 | -0.964 |
| CCCCCCCCCCNC(=O)C(=O)Nc1ccccn1 | 0.816 |
| Cc1cccc(-c2nc3ccccc3c(=O)n2NC(=O)Cc2ccc(Cl)cc2)c1 | -0.0794 |
| CCOC(=O)C1CCN(C(=O)NC23CC4CC(CC(C4)C2)C3)CC1 | active: 3.31 |
| COc1ccc(C)cc1NC(=O)C(=O)N/N=C(\C)CC(=O)Nc1cccnc1 | -0.053 |
| O=C(CCC(=O)NCCCc1ccccc1)NCCCc1ccccc1 | -0.112 |
| CCN(CC)CCNC(=O)C(C)c1nn(C)c(=O)c2ccccc12 (centres undefined) | -0.107 |
| O=C(NC1CCCCCCC1)c1ccc(S(=O)(=O)N2CCCC2)cc1 | -0.277 |
| Cc1[nH]nc2c1C(c1cccnc1)N(c1ccc(Br)cc1)C2=O (centres undefined) | -0.132 |
| CCC(C)NS(=O)(=O)c1ccc(S(=O)(=O)N(CC(=O)Nc2ccccc2)Cc2ccco2)cc1 (centres undefined) | -0.166 |
